Among the data in the RNAGym collection of RNA variant scans (doi:10.7554/elife.90254) are self-cleavage values, retold here.

B1: OR4K15 (parent)
chain: GUUAACGGUCAUAGGCCAUGGAAACUAGGAGCACCAUUUCGCUGCCAGUGAAGAAAUGAACAAAGAAAAUCUGGGCCAGGCAGGCAUCAAAAGAAAUAGUCUUGCGCUCAACCAGAAAGUCUGUAAUCAUUUUAAGGGUA

The source gives no read counts; variants with many changes may rest on few reads.

The variants in this data set derive from B1. Nature of the data set: self-cleavage, relative activity (ratio to wild type); higher = more cleavage; in vitro, sequencing; the parent is a self-cleaving ribozyme.
For A18G A22G U37G A64G, the self-cleavage was determined as 1.27.
On to A13G A96G U127C, for which the self-cleavage stood at 0.77.
The result for A18C U127C A140C reads 0.98.
To A18G A47G A86G U132C belongs 0.93; to A13G A22U A33U U43C A69G A82U A117G U130C, 0.18.
A18G A36U A67G: the self-cleavage is 2.38.
With A13G G28A U38A A94G, the self-cleavage was 1.79.
Consider A13G A52G A78U A91G A116G U130C, for which the self-cleavage was 0.04.
To G15U G50A A59U A63G U122A belongs 0.11; to A13G A24U A33G U43A, 1.08.
On to A18G A47U A55G G58A, for which the self-cleavage was 0.3.
The result for A18G A59G A69G reads 1.62; that for A13G A63U A86G A92G A116U, 0.53; that for A18G A52G A62C A111U, 0.19.
With A18G G84U U102C, the self-cleavage is 0.37.
On to A13C A22G A60G A67G, for which the self-cleavage worked out at 1.12.
With A18G A33G A62U, the self-cleavage stood at 0.41.
Take A18G A52G U57A: the self-cleavage was 0.77.
Consider G14C C42U A110C A111U, for which the self-cleavage was 0.02.
The result for A13U A18U A68G reads 1.95; that for A13G U39A A68G G104U, 0.04; that for A13G A22G U49C U72C U103A A114U G123A, 0.
As for G14A A56G A59U A94G, the self-cleavage was 0.36.
To A13G U37C A54G G75U belongs 0.38; to A13C U19C A33U A60G A90U, 1.37; to A13G A56G U87C A96G, 1.6.
To G15A A92G A140G belongs 1.83; to A18G A78G C85U U133A, 0.31; to A13U U39C A59G A67G A86U A117G, 0.75.
In the case of A18G G53A A67G U122C U132C, the self-cleavage was determined as 0.32.
To G14A A51G U132C belongs 1.78.
Regarding A13G A52U A96U, the self-cleavage was 1.5.
The result for G14A A51G A52G A69U U87C A118U reads 0.86; that for A13U U39C U43A A59U A64U U87A G136A, 0.46.
The result for A18G A60U A90G A94G reads 1.48; that for G14U A33U A52G U103C, 1.67; that for G14C U72C A95G, 0.68.
The result for A13G U39C A47G A54G reads 0.78.
Consider A18G A94G U97C, for which the self-cleavage amounted to 0.73.
For the variant A13C A94G A125G, the self-cleavage is 0.43.
G15C U19A A30G U108C: the self-cleavage was 0.04.
The result for A13G U87C A126G reads 0.57; that for A18G C42U U49C A116U, 0.44.
Regarding A13G U19C A69G C81U A92C A94G U103C U122C, the self-cleavage amounted to 0.02.
The result for A13G U100A U102C reads 1.6; that for A13G A23G A63G G106A, 0.04; that for A18G A78U G137A, 0.29.
The result for A13G A60U A67G reads 0.65; that for A18C A69G C107G U124C, 0.01.
In the case of A18G A51G A55G U127A, the self-cleavage came to 1.02.
For A13G U37C A90U A117G, the self-cleavage is 1.39.
To C17U A23G A69G A110C belongs 0.23; to A18G A52G A54G C107G, 0.06.
Take A18G A64G A67C U131C: the self-cleavage is 1.04.
To A13G U19C A59G A110G belongs 0.18; to C17A A30U U122A, 0.84.
As to A18G A27U A114U A116G, the self-cleavage was found to be 0.02.
The result for A18C A55C U102C U122C U127C reads 1.82; that for A18G A56G U108C U130C, 0; that for G15C U39A A56G A125G, 0.68.
To A18G G65U A111C belongs 0; to A13G A23G U49C A67G, 1.37.
To C17U A22G U49A A51G U132C belongs 1.17; to A13G U19C A82G A95G A111G, 0.13; to A18G A30G A63G A78U, 0.4.
On to A13G A98G U100C, for which the self-cleavage is 0.8.
To A18G A24U A30G U38C U57C A94G belongs 0.57; to G15A A68G A110G, 0.13.
Take A18G A64G A66U: the self-cleavage turned out to be 0.71.
To A13G U19A A117G belongs 0.8; to C17U A67G A90G A135G, 0.36; to A13G A33G A60G A78G A82G, 0.33.
To C17U A78G A95G U102A belongs 0.13; to A13G A56U U139G, 0.57; to A13G C32U U43A A47U C113U A118G, 0.18.
To G15A A68G A111G belongs 0.01; to A13G A18G A55G, 0.55.
For the variant A13G A54G A114U, the self-cleavage was determined as 0.19.
To G14A U19C U57C A92G belongs 0.46; to A18G C40A U49C A63G U132C, 1.12.
The result for A18G A68G U102C U103A reads 0.24; that for A18C A92G A98U, 2.02; that for A13U U19C A89G A111G, 0.03.
As for A18G G48A A69G A95G, the self-cleavage amounted to 0.88.
Regarding A18G A56G A111G, the self-cleavage worked out at 0.04.
For the variant A13G A52G A67G A89G, the self-cleavage turned out to be 0.86.
As for A18G G21U U43A A140G, the self-cleavage turned out to be 1.76.
The result for A13C G44A A64U reads 1.6.
The result for A18G A27G U132C reads 0.72; that for U12G U38C A62G, 1.18.
To A13G U57C U87A A89G A91G U103C G104A U122C belongs 0; to C17G A67U A116G U132C, 0.42; to A18G C34U A89G, 1.19.
In the case of A13G A30U A60G U122C, the self-cleavage worked out at 0.6.
To C16U U26A A62G A126C belongs 0.77.
To G15C U43A A78G A140G belongs 0.24; to C17U A22G A36G, 1.09.
To A18C A23G A63G A111G A116U belongs 0.01; to G15C U38C A52U U57A G74A, 0.16; to A18G A33G U57C U102C G123A, 1.8.
As to A13G A18U U122C U132C, the self-cleavage is 0.38.
To A18G A69U A78G belongs 0.2; to G14U U72C U108C, 0.01; to G14A U26C U130C, 0.63.
The result for C17U A22G A52G reads 0.4.
Consider A18G A54G A111G A114G, for which the self-cleavage is 0.12.
To C16U U57C A140G belongs 0.48; to A13U C45U U49C U57C, 0.99; to A13G G21A U43C, 0.75.
The result for A18G A68C A118G reads 1.03; that for C16U A22U A64G A114C U133C, 0.04.
Take A13G U37C A55G: the self-cleavage worked out at 1.04.
With A18G A59U A67G U122C, the self-cleavage came to 0.87.
Take A13G A60G G75U U97C A118G U127C: the self-cleavage came out at 0.05.
Regarding C17A A30G A67U G93A, the self-cleavage turned out to be 1.33.
The result for A13U A91G A92G U124C reads 0.48; that for A13G A60U U72A U100A, 0.38; that for G14A A23C U87C A91G, 0.92.
The result for A18G A51G A96G A129C U130C reads 0.85.
For A18G A36U C105U U108C, the self-cleavage was found to be 0.01.
With A13G U43C A78U U127C, the self-cleavage stood at 0.18.
The result for C16U A23G U87C reads 1.05; that for A18G A89U A92G U127C, 0.52.
Turning to A13U A23G C35U, the self-cleavage was found to be 1.4.
The result for A18G A62U A68G U108C A117G reads 0.03; that for A13U U37C U43C A66G U97C U130C, 0.56.
As to A18G A51G A135G, the self-cleavage was 1.2.
Take A13G A36G A98G A116G: the self-cleavage came to 0.26.
To G15A G75A A89U belongs 0.11; to A13G A59U A68G, 0.64.
To A18C A117G U122C belongs 1.91; to A13U U39C A59G A64G A114U U122C, 0.15; to A13G A18G A66G, 1.67.
Regarding A18G A62U A64U A82G A90U A114G, the self-cleavage turned out to be 0.17.
To A13G A54G A89G belongs 0.83.
The result for C16A U19C A23G G48A A118G reads 0.54.
As for A13C U39C A51G A86G A94G C107U U130C, the self-cleavage amounted to 0.01.
To A18G A22G U43C A89G A114U belongs 0.09; to A13G A69G U97C, 0.67.
As to U12G U87C A90G U100C, the self-cleavage was 1.9.
To G14A A23C U124A belongs 1.01.
To A18G A22G U39C U103C A135U belongs 1.26; to A13G U37C A52G A82U A96G A117G, 0.16.
As for A13G U49A G80A U131C, the self-cleavage was 0.26.
Turning to U12G A96U A118G, the self-cleavage was 0.85.
For the variant C17A A94U A118C U132C, the self-cleavage amounted to 0.17.
To C16U A36U U70C belongs 0.74; to A18G A23G U130C U133C, 1.5; to G15C A33G A96U, 1.15.
As to C16U A110G U130C A140U, the self-cleavage turned out to be 0.04.
The result for A18G A91G A96G A118G U124C reads 0.56.
The result for A18G A92G A140G reads 2.37; that for A18G A54U A60G A129G, 0.84; that for A18G A69G A126G, 0.42.
For the variant G15A U39C A51G A110G A126U, the self-cleavage stood at 0.1.
Take A13U A59U A66G A140U: the self-cleavage is 1.24.
As for A13G A82U U122A, the self-cleavage was found to be 0.33.
To A13G A24G C32A A118G belongs 0.53; to A13G U43C A92G, 0.84.
To A13G U38C A60G A96G belongs 0.69; to C17G A18G A60G, 1.16; to C16U A18U A27C U39C A117G, 1.13.
With A18G A89G U139A, the self-cleavage is 1.77.
G15A A33G U70C U120C: the self-cleavage is 0.05.
To A18G A22G U43C A69G U102C A111G belongs 0.05; to A13G U37C A116C, 0.06; to A13U A55G A66G, 1.64.
